{
  "source": "the supplement of paper PMC9446081",
  "note": "In all, about 39,000 compounds went through this assay and about 220 (0.56%) showed activity. The list shows a part of the results.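 Also: static incubation at 37 °C against the wild-type strain, values averaged over two biological replicates.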",
  "data": [
    {"test_system": "Escherichia coli K-12 BW25113", "test": "relative growth (OD600 normalised to plate interquartile mean) (fraction); higher = less growth inhibition, active = 0.2 or less", "conditions": "50 µM; LB; incubation time: overnight (16-24 h)", "values": [
      {"smiles": "C[C@@H]1CN([C@H](C)CO)C(=O)c2cccc(NC(=O)Nc3ccc(F)cc3)c2O[C@@H]1CN(C)S(=O)(=O)c1cn(C)cn1", "relative growth": "inactive: 1"},
      {"smiles": "COc1ccc(S(=O)(=O)Nc2cccc3c2O[C@@H](CN(C)S(=O)(=O)c2c(C)noc2C)[C@H](C)CN([C@H](C)CO)C3=O)cc1", "relative growth": "inactive: 1.02"},
      {"smiles": "CN(C)CCCNC(=O)C[C@H]1CC[C@H]2[C@@H](COC[C@H](O)CN2S(=O)(=O)c2ccccc2)O1", "relative growth": "inactive: 1.01"},
      {"smiles": "O=c1c(O)c(-c2ccc(O)c(O)c2)oc2c(OC3OC(CO)C(O)C(O)C3O)c(O)cc(O)c12", "note": "(stereo unspecified)", "relative growth": "inactive: 0.894"},
      {"smiles": "CO[C@H]1O[C@H](COS(=O)(=O)O)[C@@H](O[C@@H]2O[C@@H](C(=O)O)[C@@H](O[C@H]3O[C@H](COS(=O)(=O)O)[C@@H](O[C@@H]4O[C@H](C(=O)O)[C@@H](O[C@H]5O[C@H](COS(=O)(=O)O)[C@@H](O)[C@H](O)[C@H]5NS(=O)(=O)O)[C@H](O)[C@H]4O)[C@H](OS(=O)(=O)O)[C@H]3NS(=O)(=O)O)[C@H](O)[C@H]2OS(=O)(=O)O)[C@H](O)[C@H]1NS(=O)(=O)O", "relative growth": "inactive: 0.988"},
      {"smiles": "Cc1noc(C)c1NC(=O)Nc1ccc2c(c1)C(=O)N([C@H](C)CO)C[C@@H](C)[C@@H](CN(C)Cc1ccc(-c3ccccc3)cc1)O2", "relative growth": "inactive: 0.944"},
      {"smiles": "C[C@@H]1CCCCO[C@H](CN(C)C(=O)NC2CCCCC2)[C@H](C)CN([C@H](C)CO)C(=O)c2cc(NC(=O)Nc3cccc4ccccc34)ccc2O1", "relative growth": "inactive: 1.02"},
      {"smiles": "COCC(=O)Nc1ccc2c(c1)C(=O)N(C)[C@H]1CC[C@@H](CC(=O)NCc3ccccc3Cl)O[C@@H]1CO2", "relative growth": "inactive: 1.04"},
      {"smiles": "C[C@H](CO)N1C[C@H](C)[C@H](CN(C)C(=O)c2cccnc2)Oc2ncc(-c3ccc(C(=O)N(C)C)cc3)cc2C1=O", "relative growth": "inactive: 1.01"},
      {"smiles": "COc1ccc(CN(C)C[C@H]2OCCCC[C@H](C)Oc3ccc(NC(=O)NC(C)C)cc3C(=O)N([C@H](C)CO)C[C@H]2C)cc1", "relative growth": "inactive: 0.982"},
      {"smiles": "Cc1noc(C)c1S(=O)(=O)Nc1ccc2c(c1)C(=O)N([C@H](C)CO)C[C@H](C)[C@H](CN(C)C(=O)NC1CCCCC1)O2", "relative growth": "inactive: 0.99"},
      {"smiles": "C[C@@H]1CN([C@@H](C)CO)C(=O)c2cccc(NC(=O)NC3CCCCC3)c2O[C@@H]1CN(C)S(=O)(=O)c1cn(C)cn1", "relative growth": "inactive: 1.02"},
      {"smiles": "O=C(C[C@H]1C[C@@H]2c3cc(NS(=O)(=O)c4ccc(F)cc4)ccc3O[C@@H]2[C@H](CO)O1)NCc1ccccc1", "relative growth": "inactive: 0.987"},
      {"smiles": "Cc1ccc(S(=O)(=O)N(C)C[C@@H]2OCCCC[C@@H](C)Oc3ccc(NC(=O)C4CCCCC4)cc3C(=O)N([C@H](C)CO)C[C@@H]2C)cc1", "relative growth": "inactive: 1.02"},
      {"smiles": "C[C@H](CO)N1C[C@H](C)[C@@H](CN(C)Cc2ccccc2F)Oc2cc(C#CCN(C)C)ccc2S1(=O)=O", "relative growth": "inactive: 1.03"},
      {"smiles": "C[C@@H]1CCCCO[C@H](CN(C)S(=O)(=O)c2ccccc2)[C@@H](C)CN([C@H](C)CO)C(=O)c2cc(NC(=O)CCC(F)(F)F)ccc2O1", "relative growth": "inactive: 0.999"},
      {"smiles": "C[C@H](NC(=O)N(C)C[C@H]1OCc2ccccc2-c2ccccc2C(=O)N([C@H](C)CO)C[C@@H]1C)c1ccccc1", "relative growth": "inactive: 1"},
      {"smiles": "COc1ccc(S(=O)(=O)Nc2ccc3c(c2)C(=O)N([C@@H](C)CO)C[C@@H](C)[C@@H](CN(C)C(=O)Nc2c(C)noc2C)OCCCC[C@@H](C)O3)cc1", "relative growth": "inactive: 0.997"},
      {"smiles": "O=C(N[C@@H](c1ccc2c(c1)OCO2)c1ccccn1)C1CCN(CCOc2ccc(Cl)cc2Cl)CC1", "relative growth": "inactive: 0.965"},
      {"smiles": "CC(C)CC#Cc1ccc2c(c1)O[C@@H](CN(C)C(=O)NC1CCCC1)[C@@H](C)CN([C@H](C)CO)S2(=O)=O", "relative growth": "inactive: 1.05"},
      {"smiles": "C[C@@H]1CCCCO[C@@H](CN(C)S(=O)(=O)c2ccc(F)cc2)[C@H](C)CN([C@@H](C)CO)C(=O)c2cc(NC(=O)c3ccccc3)ccc2O1", "relative growth": "inactive: 1.02"},
      {"smiles": "O=C(COP(=O)(O)O)[C@H](O)[C@@H](O)COP(=O)(O)O", "relative growth": "inactive: 1"},
      {"smiles": "C[C@@H]1CN([C@H](C)CO)C(=O)c2cc(C#CCN(C)C)cnc2O[C@@H]1CN(C)Cc1cccc(C(=O)O)c1", "relative growth": "inactive: 0.993"},
      {"smiles": "C[C@@H]1CN([C@@H](C)CO)C(=O)c2cccc(NC(=O)Nc3cccc4ccccc34)c2O[C@@H]1CN(C)S(=O)(=O)c1ccc(Cl)cc1", "relative growth": "inactive: 1.03"},
      {"smiles": "CN(C)CC(=O)N[C@H]1CC[C@H](CCNS(=O)(=O)c2ccccc2)O[C@H]1CO", "relative growth": "inactive: 1"},
      {"smiles": "O=C(C[C@@H]1CC[C@@H]2[C@H](COC[C@@H](O)CN2S(=O)(=O)c2ccc(Cl)cc2)O1)NCCN1CCCCC1", "relative growth": "inactive: 1.02"},
      {"smiles": "O=C(C[C@H]1C=C[C@@H](NC(=O)C2CCC2)[C@H](CO)O1)NCCCN1CCOCC1", "relative growth": "inactive: 0.986"},
      {"smiles": "CC(C)NC(=O)N1Cc2cc(C(=O)NC3Cc4ccccc4C3)nc(-c3cccc(-c4cccnc4)c3)c2[C@H]1CCO", "relative growth": "inactive: 0.995"},
      {"smiles": "CS(=O)(=O)CCOC(=O)C1=CC(CCCO)=C[C@@H](c2ccc(CN3CCCC3)cc2)N(Cc2sc3ccccc3c2Cl)C=C1C(=O)OCCS(C)(=O)=O", "relative growth": "inactive: 0.947"},
      {"smiles": "C[C@@H]1CN([C@H](C)CO[Si](C)(C)C(C)(C)C)C(=O)c2cc(NC(=O)C3CCCCC3)ccc2O[C@H]1CN(C)C(=O)c1ccc(Cl)cc1", "relative growth": "inactive: 0.998"},
      {"smiles": "C[C@@H]1CN([C@@H](C)CO)C(=O)c2cc(-c3cccc(C(=O)N(C)C)c3)cnc2O[C@H]1CN(C)S(=O)(=O)c1ccccc1", "relative growth": "inactive: 1.01"},
      {"smiles": "CC/N=C1\\S[C@H](C(N)=O)CC(=O)N1CC", "relative growth": "inactive: 1.02"},
      {"smiles": "CC(=O)OCC(=O)C1(O)CCC2C3CCC4=CC(=O)C=CC4(C)C3(F)C(O)CC21C", "note": "(stereo unspecified)", "relative growth": "inactive: 1.16"},
      {"smiles": "C[C@H](CO)N1C[C@H](C)[C@H](CN(C)Cc2ccc(Cl)c(Cl)c2)Oc2ccc(NS(=O)(=O)c3cccs3)cc2C1=O", "relative growth": "inactive: 1.01"},
      {"smiles": "NCC(=O)Nc1ccc(F)c(F)c1F", "relative growth": "inactive: 1.01"},
      {"smiles": "C[C@@H]1CCCCO[C@@H](CN(C)S(=O)(=O)c2ccc(Cl)cc2)[C@@H](C)CN([C@H](C)CO)C(=O)c2cc(NC(=O)C3CCCCC3)ccc2O1", "relative growth": "inactive: 1"}
    ]}
  ]
}
